Results published in PubChem BioAssay (NCATS).
The inconclusive results got no clear call from the source; some entries with a clear call stand among them for comparison. For some of these results: No potency is given beside an inconclusive call; the fits are too rough. Active and inactive are the calls of the source. Calls come from the whole dose curve; as a rule, active = well fitted curve in the direction sought with a large enough effect; inconclusive = small, poorly fitted or top-dose-only effect, or another doubt; inactive = no such curve, though single readings can be large; an effect the other way counts as inactive or inconclusive.

Tests used:
[1] = qHTS of pediatric cancer cell lines to identify multiple opportunities for drug repurposing: Primary screen for A673 cells (AID 1347092); details: A673 Ewing sarcoma viability, CellTiter-Glo ATP luminescence, 48 h; activity change, negative = cytotoxic: at 46 µM (top of the series); note: nearly all actives have a fitted effect of over 45% in size
Outline: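 Titration-based qHTS on A673 cells: MIPE compounds spanned 11 points (0.78 nM to 46 µM final), NPC compounds 8 points (0.59 nM to 46 µM final). Viability after 48 h was measured by ATP luminescence.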

[2] = qHTS of pediatric cancer cell lines to identify multiple opportunities for drug repurposing: Primary screen for RD cells (AID 1347104); details: RD rhabdomyosarcoma viability, CellTiter-Glo luminescence, 48 h; activity change, negative = cytotoxic: at 46 µM (top of the series); note: nearly all actives have a fitted effect of over 55% in size
Outline: (§1)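 Plated cells (500-1,000 per well, growth media) were allowed to settle for 5 hours, treated with compound dilutions for 48 hours, then lysed with CellTiter-Glo for 15 min at room temperature before luminescence reading.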

[3] = system: Zika virus NS2B-NS3 protease (unlinked complex); assay: Primary screen GU Rhodamine qHTS for Zika virus inhibitors: Unlinked NS2B-NS3 protease assay (AID 1347159); note: nearly all actives have a fitted effect of over 60% in size
Outline: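 Unlinked NS2B/NS3, 25 nM; Rhod110 peptide, 1.5 microM; compounds, up to 114 microM. Reaction run 15 min at RT in 10 mM Tris-HCl pH 8.0, 0.01% Tween 20; kinetic fluorescence change fitted with a 4-parameter Hill model.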

[4] = qHTS of pediatric cancer cell lines to identify multiple opportunities for drug repurposing: Primary screen for TC32 cells (AID 1347089); note: nearly all actives have a fitted effect of over 60% in size
Outline: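 A viability screen of TC32 cells was run over 48 h, with primary MIPE doses spanning 0.78 nM–46 µM and NPC doses 0.59 nM–46 µM. ATP luminescence (CellTiter-Glo) served as the read-out.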

MKL-1 = assay: qHTS assay to identify novel small-molecules to repurpose for Merkel cell carcinoma treatment (AID 1296009); details: MCC and control cell lines, CellTiter-Glo viability, 72 h; series mostly up to 46 µM; note: nearly all actives have a fitted effect of over 60% in size
Outline: (§2)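 Viability readout: ATP luminescence (CellTiter-Glo) after 72 hr drug exposure at 37 degree celsius. Dose-response format was 8 points for NPC and 11 points for MIPE; data normalized to in-plate controls.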

[5] = qHTS of pediatric cancer cell lines to identify multiple opportunities for drug repurposing: Primary screen for U-2 OS cells (AID 1347096); note: nearly all actives have a fitted effect of over 50% in size
Outline: (§3)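 Cells (500-1,000/well) in growth media were settled 5 h at 37 degrees C, then given compounds for 48 h. Viability was read as CellTiter-Glo luminescence. Primary runs used MIPE at 11 points (0.78 nM-46 µM) and NPC at 8 points (0.59 nM-46 µM); follow-ups used 11 points.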

[6] = qHTS of pediatric cancer cell lines to identify multiple opportunities for drug repurposing: Primary screen for Saos-2 cells (AID 1347097); note: nearly all actives have a fitted effect of over 40% in size
Outline: as §1

[7] = qHTS of pediatric cancer cell lines to identify multiple opportunities for drug repurposing: Primary screen for Rh18 cells (AID 1347102); note: nearly all actives have a fitted effect of over 65% in size
Outline: as §3

[8] = qHTS of pediatric cancer cell lines to identify multiple opportunities for drug repurposing: Primary screen for MG 63 (6-TG R) cells (AID 1347105); details: MG 63 (6-TG R) viability, CellTiter-Glo, 48 h; activity change, negative = cytotoxic: at 46 µM (top of the series); note: nearly all actives have a fitted effect of over 50% in size
Outline: as §1

[9] = qHTS of pediatric cancer cell lines to identify multiple opportunities for drug repurposing: Primary screen for control Hh wild type fibroblast cells (AID 1347106); note: nearly all actives have a fitted effect of over 55% in size
Outline: as §3

[10] = Quantitative High-Throughput drug screen in 47 multiple myeloma cell lines against the NCATS MIPE library collection: JIM1_ECACC cell viability assay (AID 1918964)
Outline: (§4)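 qHTS of the MIPE 4.0 collection: 500 myeloma cells/well, 48 h drug exposure at 37C in 5% CO2, then CellTiter-Glo for 5 min at room temperature before luminescence reading.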

[11] = Quantitative High-Throughput drug screen in 47 multiple myeloma cell lines against the NCATS MIPE library collection: KMS21BM_JCRB cell viability assay (AID 1918974); details: ATP luminescence, 48 h; viability: at 45.8 µM (top of the series)
Outline: as §4

[12] = Quantitative High-Throughput drug screen in 47 multiple myeloma cell lines against the NCATS MIPE library collection: L363_DSMZ cell viability assay (AID 1918984); details: L363 myeloma viability, CellTiter-Glo ATP luminescence, 48 h; series mostly up to 45.8 µM; note: nearly all actives have a fitted effect of over 40% in size
Outline: (§5)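 qHTS format: cells plated (500/well), pin-dosed with MIPE 4.0 compounds, kept 48 h at 37 °C. Readout was CellTiter-Glo luminescence, median RLU.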

[13] = Quantitative High-Throughput drug screen in 47 multiple myeloma cell lines against the NCATS MIPE library collection: UTMC2_PLB cell viability assay (AID 1919868); details: CellTiter-Glo ATP luminescence, 48 h; series mostly up to 45.8 µM; note: nearly all actives have a fitted effect of over 55% in size
Outline: as §5

MCC-13 = assay: qHTS assay to identify novel small-molecules to repurpose for Merkel cell carcinoma treatment (AID 1296009); details: MCC and control cell lines, CellTiter-Glo viability, 72 h; series mostly up to 46 µM; note: nearly all actives have a fitted effect of over 60% in size
Outline: as §2

[14] = qHTS of pediatric cancer cell lines to identify multiple opportunities for drug repurposing: Primary screen for SK-N-MC cells (AID 1347093); details: SK-N-MC viability, CellTiter-Glo luminescence, 48 h; activity change, negative = cytotoxic: at 46 µM (top of the series)
Outline: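 Metabolically active cells were quantified by ATP-dependent luminescence (CellTiter-Glo, 15 min at room temperature) following 48 h treatment. Cells had been plated at 500-1,000 per well and settled for 5 h beforehand.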

[15] = Quantitative High-Throughput drug screen in 47 multiple myeloma cell lines against the NCATS MIPE library collection: KHM11_PLB cell viability assay (AID 1918962); details: KHM11 myeloma cell viability, CellTiter-Glo ATP luminescence, 48 h; series mostly up to 45.8 µM; note: nearly all actives have a fitted effect of over 35% in size
Outline: as §4
Potency is the fitted concentration of half-maximal effect; tags give direction and shape of the fitted curve.

NC(N)=N/N=C/c1c(Cl)cccc1Cl
Potency [1]: inconclusive [cytotoxic, single point]
Potency [2]: inconclusive [cytotoxic, single point]

CC(C)c1ccccc1OC(=O)NCCc1ccc2ccccc2c1
Potency [3]: inconclusive [inhibitor, partial curve]

CCOC(=O)OC(C)OC(=O)[C@@H]1N2C(=O)[C@@H](NC(=O)[C@H](N)c3ccccc3)[C@H]2SC1(C)C (some centres not stated)
Potency [4]: inactive
Potency (MKL-1): inactive

O=C(O)[C@@H]1[C@H]2C[C@H]3c4[nH]c5ccccc5c4CCN3C[C@@H]2CC[C@@H]1O
Potency [1]: inactive

O=C(Nc1cn[nH]c1-c1nc2ccc(CN3CCOCC3)cc2[nH]1)NC1CC1
Potency [4]: inconclusive [cytotoxic, partial curve, poor fit]
Potency [5]: active: 4.69 µM
Potency [6]: active: 0.935 µM
Potency [7]: active: 0.935 µM
Potency [2]: active: 5.9 µM
Potency [8]: active: 7.43 µM
Potency [9]: active: 10.5 µM
Potency [10]: active: 2.09 µM
Potency [11]: inconclusive [cytotoxic, full curve, poor fit]
Potency [12]: active: 2.64 µM
Potency [13]: inconclusive [cytotoxic, full curve, poor fit]
Potency (MCC-13): active: 0.935 µM
Potency (MKL-1): inconclusive [inhibitor, partial curve, poor fit]

O=C(NCCc1c[nH]c2ccccc12)c1cccnc1
Potency [7]: inactive

C#C[C@]1(OC(C)=O)CC[C@H]2[C@@H]3CCC4=C/C(=N/O)CC[C@@H]4[C@H]3CC[C@@]21CC
Potency [4]: inconclusive [cytotoxic, single point]
Potency [1]: inconclusive [cytotoxic, single point]
Potency [14]: inconclusive [cytotoxic, single point]
Potency [6]: inconclusive [cytotoxic, partial curve, poor fit]
Potency [7]: inactive
Potency [2]: active: 29.9 µM
Potency (MKL-1): inconclusive [inhibitor, single point]

C[C@@H](Oc1ccc2[nH]nc(C=Cc3cnn(CCO)c3)c2c1)c1c(Cl)cncc1Cl
Potency [6]: inconclusive [cytotoxic, partial curve]
Potency [7]: active: 5.9 µM
Potency [8]: active: 18.7 µM
Potency [9]: inconclusive [cytotoxic, partial curve]
Potency [15]: active: 1.87 µM
Potency [10]: inactive
Potency [11]: inconclusive [rising, partial curve]
Potency [12]: inconclusive [cytotoxic, single point]
Potency [13]: inconclusive [cytotoxic, full curve, poor fit]
Potency (MCC-13): active: 26.4 µM
